No constants are given. Whether binding was seen depends on the method and setting. Binding seen in cells or lysates may run through a third protein. Some binding calls cover weakened binding; strength is not graded here.

Chains of the proteins cited; added tags and fusions are not shown. Lines headed by an entry give the natural chain unless they say otherwise; changes in a name come on top.
UniProt P14713: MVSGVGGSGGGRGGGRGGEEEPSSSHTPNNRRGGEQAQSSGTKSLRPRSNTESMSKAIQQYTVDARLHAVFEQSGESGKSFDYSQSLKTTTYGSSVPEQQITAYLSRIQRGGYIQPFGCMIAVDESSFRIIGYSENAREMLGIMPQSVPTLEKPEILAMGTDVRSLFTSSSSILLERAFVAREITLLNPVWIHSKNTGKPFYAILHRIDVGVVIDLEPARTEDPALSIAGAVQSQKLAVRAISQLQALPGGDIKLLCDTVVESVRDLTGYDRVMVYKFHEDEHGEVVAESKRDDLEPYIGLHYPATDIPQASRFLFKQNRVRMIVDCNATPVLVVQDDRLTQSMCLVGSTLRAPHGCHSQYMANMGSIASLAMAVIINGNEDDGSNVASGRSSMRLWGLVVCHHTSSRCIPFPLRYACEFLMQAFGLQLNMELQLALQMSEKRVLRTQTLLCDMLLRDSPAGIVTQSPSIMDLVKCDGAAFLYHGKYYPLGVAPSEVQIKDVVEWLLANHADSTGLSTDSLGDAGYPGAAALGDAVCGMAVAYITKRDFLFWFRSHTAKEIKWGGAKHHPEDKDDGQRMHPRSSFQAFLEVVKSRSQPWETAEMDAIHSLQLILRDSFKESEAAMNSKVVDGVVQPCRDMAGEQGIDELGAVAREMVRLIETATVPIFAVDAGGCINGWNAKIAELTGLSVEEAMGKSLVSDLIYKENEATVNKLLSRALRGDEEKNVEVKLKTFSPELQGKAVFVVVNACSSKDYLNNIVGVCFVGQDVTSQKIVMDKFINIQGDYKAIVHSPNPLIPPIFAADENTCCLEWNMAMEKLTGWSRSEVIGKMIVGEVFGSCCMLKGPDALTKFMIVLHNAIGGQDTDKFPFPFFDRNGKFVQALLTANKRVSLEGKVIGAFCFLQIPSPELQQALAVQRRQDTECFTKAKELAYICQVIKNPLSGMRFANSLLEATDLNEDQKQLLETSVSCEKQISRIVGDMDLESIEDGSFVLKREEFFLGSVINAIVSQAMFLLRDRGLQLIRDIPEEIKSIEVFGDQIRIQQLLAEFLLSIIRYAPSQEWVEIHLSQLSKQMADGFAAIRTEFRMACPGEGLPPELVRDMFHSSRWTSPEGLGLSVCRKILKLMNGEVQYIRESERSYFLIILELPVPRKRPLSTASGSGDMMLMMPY

Test [1] has as its target T1, GAD-PIF3, in vitro translated (Arabidopsis) (UniProt O80536).
T1 sequence (chain, 35S-methionine labelled): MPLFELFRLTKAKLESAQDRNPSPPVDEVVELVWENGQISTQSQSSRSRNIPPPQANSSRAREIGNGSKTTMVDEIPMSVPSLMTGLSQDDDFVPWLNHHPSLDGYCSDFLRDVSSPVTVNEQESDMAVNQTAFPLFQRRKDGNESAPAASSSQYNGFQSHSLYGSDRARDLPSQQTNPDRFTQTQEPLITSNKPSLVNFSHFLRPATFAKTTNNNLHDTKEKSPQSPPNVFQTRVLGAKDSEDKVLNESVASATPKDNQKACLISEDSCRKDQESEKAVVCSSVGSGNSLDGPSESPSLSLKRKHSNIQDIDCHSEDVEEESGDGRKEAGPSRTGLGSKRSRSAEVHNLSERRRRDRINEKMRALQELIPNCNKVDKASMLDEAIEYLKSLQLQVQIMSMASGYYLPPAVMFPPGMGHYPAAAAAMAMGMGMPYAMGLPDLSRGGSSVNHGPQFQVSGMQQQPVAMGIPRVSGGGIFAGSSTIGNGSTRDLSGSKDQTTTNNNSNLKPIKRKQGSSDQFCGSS
Put plainly: co-IP; in vitro co-immunoprecipitation; both proteins in vitro translated with 35S-met; GAD-PIF3 (or another PIF) as bait, phyB Pfr as prey.

The target in test [2] is T2, PIF5, in vitro translated (Arabidopsis) (UniProt Q84LH8).
T2 sequence: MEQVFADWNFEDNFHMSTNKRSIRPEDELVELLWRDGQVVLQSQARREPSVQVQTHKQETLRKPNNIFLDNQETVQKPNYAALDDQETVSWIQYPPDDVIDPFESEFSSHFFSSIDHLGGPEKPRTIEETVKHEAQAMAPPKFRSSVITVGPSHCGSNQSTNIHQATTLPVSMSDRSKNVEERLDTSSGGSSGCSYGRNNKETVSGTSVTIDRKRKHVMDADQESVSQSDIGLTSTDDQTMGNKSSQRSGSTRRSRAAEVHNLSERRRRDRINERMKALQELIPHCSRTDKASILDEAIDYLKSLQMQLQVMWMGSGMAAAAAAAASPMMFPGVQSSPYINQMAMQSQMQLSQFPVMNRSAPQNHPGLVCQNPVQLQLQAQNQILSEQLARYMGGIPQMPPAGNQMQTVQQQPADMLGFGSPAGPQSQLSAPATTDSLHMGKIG
Described as above.

Test [3] concerns the target T3, PIF4, in vitro translated (Arabidopsis) (UniProt Q8W2F3).
T3 sequence: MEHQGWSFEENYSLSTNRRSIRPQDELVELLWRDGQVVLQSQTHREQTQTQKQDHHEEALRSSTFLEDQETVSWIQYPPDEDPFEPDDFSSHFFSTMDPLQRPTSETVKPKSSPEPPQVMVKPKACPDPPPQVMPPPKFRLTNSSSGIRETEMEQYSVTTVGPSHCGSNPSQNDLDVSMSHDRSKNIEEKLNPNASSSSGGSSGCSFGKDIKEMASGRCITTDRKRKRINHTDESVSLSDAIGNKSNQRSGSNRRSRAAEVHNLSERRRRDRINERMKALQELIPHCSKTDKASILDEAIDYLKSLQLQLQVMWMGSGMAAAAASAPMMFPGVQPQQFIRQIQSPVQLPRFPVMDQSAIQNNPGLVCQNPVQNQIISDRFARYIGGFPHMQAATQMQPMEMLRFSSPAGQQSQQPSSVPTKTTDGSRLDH
The description is as above.

The target in test [4] is T4, PIF7, in vitro translated (Arabidopsis) (UniProt Q570R7).
T4 sequence: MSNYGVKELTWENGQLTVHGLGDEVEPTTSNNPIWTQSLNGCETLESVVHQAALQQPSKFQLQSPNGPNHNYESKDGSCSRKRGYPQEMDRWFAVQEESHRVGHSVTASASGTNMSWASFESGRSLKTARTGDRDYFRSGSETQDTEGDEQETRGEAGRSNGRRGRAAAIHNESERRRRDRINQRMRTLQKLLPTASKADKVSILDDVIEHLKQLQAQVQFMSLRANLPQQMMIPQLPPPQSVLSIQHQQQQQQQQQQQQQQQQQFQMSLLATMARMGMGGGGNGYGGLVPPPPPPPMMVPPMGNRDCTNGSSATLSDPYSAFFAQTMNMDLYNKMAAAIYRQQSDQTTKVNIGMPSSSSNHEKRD
The description is as above.

Test [5] addresses T5, PIF1, in vitro translated (Arabidopsis) (UniProt Q8GZM7).
T5 sequence: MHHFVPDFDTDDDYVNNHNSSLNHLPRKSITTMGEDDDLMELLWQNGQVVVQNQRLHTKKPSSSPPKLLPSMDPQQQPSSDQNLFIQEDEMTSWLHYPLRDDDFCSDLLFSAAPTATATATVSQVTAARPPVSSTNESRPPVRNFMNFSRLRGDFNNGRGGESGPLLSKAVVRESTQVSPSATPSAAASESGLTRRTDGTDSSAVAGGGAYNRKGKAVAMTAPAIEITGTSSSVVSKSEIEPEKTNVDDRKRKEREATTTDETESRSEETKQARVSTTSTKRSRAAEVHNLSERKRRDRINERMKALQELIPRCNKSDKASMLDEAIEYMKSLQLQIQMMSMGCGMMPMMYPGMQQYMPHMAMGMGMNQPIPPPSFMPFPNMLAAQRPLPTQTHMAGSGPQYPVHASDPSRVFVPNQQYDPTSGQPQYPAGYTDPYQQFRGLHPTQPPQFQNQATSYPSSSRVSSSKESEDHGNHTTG
The test is described as above.

Test [6] deals with T1, GAD-PIF3, in vitro translated (Arabidopsis). The test is described as follows: co-IP; in vitro co-immunoprecipitation; both proteins in vitro translated with 35S-met; GAD-PIF3 as bait, phyB Pr as prey.

Consider “full-length phyB C345R (from UniProt P14713 1-1172)”, for which the binding result in test [1] is listed as “binds weakly”.

Consider “full-length phyB G111D (from UniProt P14713 1-1172)”, for which the binding entry in test [2], in test [3], in test [1], in test [4] and in test [5] was “no binding” in each case.

Regarding “full-length phyB G112D (from UniProt P14713 1-1172)”, in test [1], the binding result is listed as “binds”.

For the substance “full-length phyB L256C (from UniProt P14713 1-1172)”, the binding result in test [1] is “binds weakly”.

“full-length phyB P411L (from UniProt P14713 1-1172)”: in test [1], the binding result was “binds weakly”.

In the case of “full-length phyB R352K (from UniProt P14713 1-1172)”, the binding entry in test [2], in test [3], in test [4] and in test [5] was “no binding” throughout.

For the substance “full-length phyB S134G (from UniProt P14713 1-1172)”, the binding entry in test [1] is recorded as “binds weakly”.

On to “full-length phyB S367P (from UniProt P14713 1-1172)”, for which, in test [1], the binding entry is recorded as “binds weakly”.

For the substance “full-length phytochrome B (phyB), wild type, in vitro translated (from UniProt P14713 1-1172)”, the binding entry in test [2] is recorded as “binds”; in test [3], “binds”; in test [1] it was “binds”; in test [4], “binds”; in test [5] it was “binds”; in test [6] it was “no binding (condition: Pr form)”.

Source of the values: PMC2621353, “Residues Clustered in the Light-Sensing Knot of Phytochrome B are Necessary for Conformer-Specific Binding to Signaling Partner PIF3” (PLoS Genetics, 2009).
